Experimental data taken from ChEMBL document CHEMBL4888484, “Replenishing the malaria drug discovery pipeline: Screening and hit evaluation of the MMV Hit Generation Library 1 (HGL1) against asexual blood stage Plasmodium falciparum ,using a nano luciferase reporter read-out” (2022).
About 540 (0.36%) of roughly 150,000 compounds showed an effect of 50% or more. The list shows a part of the results.

Tested on: Plasmodium falciparum
Assay: Primary screen in NF54 nanoGlo assay, in single point, at 2uM, 72h; a lower Z score goes with more inhibition
Format: functional, Erythrocyte
Details: timepoint 72 hour

SMILES	% Inhibition [%]	Z score
C[C@H](O)C1CCN(S(=O)(=O)CCC2CC2)CC1	-1	0.06
COc1cccc(N2CCN(C(=O)c3cc(-c4ccccn4)no3)CC2)c1	2	-0.18
CC(=O)N[C@H]1C[C@H](c2cc(NCc3ccc4c(c3)OCO4)ncn2)C1	-11	1.88
O=C(COc1ccc(Cl)cc1)N1CC[C@@H](c2cccs2)S(=O)(=O)CC1	-8	1.43
O=C(C(=Cc1ccccc1)c1ccc(Cl)cc1)N1CCN(Cc2ccccc2)CC1	-9	1.21
CC[C@H](C)CN(C)C(=O)NCCc1nccn1C(F)F	-2	0.25
COc1ccc(-c2noc(CN3CCC(C(=O)N(C)c4cc(C)ccc4OC)CC3)n2)cc1OC	3	-0.45
CCO[C@H]1CN(C(=O)CCn2nc(C)c(C(C)=O)c2C)C[C@@H]1O	-8	1.32
Cc1cc(C(=O)N2CCCN(S(C)(=O)=O)[C@H]3CCC[C@H]3C(=O)NCC2)no1	-8	1.19
Cc1nnc(Cc2ccc(-n3ccnc3-c3ccnc4ccccc34)cc2)[nH]1	-5	0.94
O=C(COC[C@H]1CCCCO1)NCCc1cn[nH]c1	3	-0.46
Cc1cccc2c1N(C1CC1)CCN2C(=O)c1ccc(CS(C)(=O)=O)o1	-6	0.68
CCOC(=O)c1ccccc1S(=O)(=O)Oc1cc(Cl)ccc1-c1nc2ncccc2o1	-24	2.44
CC(C)(C)c1cc(CN2CC[C@](C)(O)[C@@H](O)C2)n[nH]1	-11	2.11
CC[C@H](OC1CCCC1)C(=O)Nc1cccnc1C	-14	1.23
CCCNC(=O)[C@H](C)NC(=O)Nc1ccc(F)cc1	-3	0.44
CC(C)(C)OC(=O)N1CCC2(CCCN(C(=O)c3cnc(-c4ccoc4)s3)C2)CC1	-17	1.61
CN(C)CC[C@H]1CCCCN1C(=O)c1cnc(C2CC2)nc1	-9	1.15
CC(C)C(=O)N1CCC(NC(=O)C(C#N)c2nc3ccccc3s2)C1 (centres undefined)	3	-0.47
COc1ccccc1C(=O)Nc1ccc(S(=O)(=O)N(Cc2ccccc2)c2ccccc2)cc1	19	-2.18
c1ccc2c(c1)NC1(CCCC1)n1nnnc1-2	-3	0.49

SMILES	% Inhibition [%]	Z score
O=C(OC1CCOCC1)N1CC[C@@H](c2ccccc2F)S(=O)(=O)CC1	6	-0.99
CCCC1(NC2CCN(c3ccc(N4CCCC4=O)cc3)CC2)CC1	-8	1.15
C[C@@H](c1cnn(C)c1)n1cnc2ccc(Cl)cc2c1=O	-10	1.79
CCn1cc(-c2ccc(OC)cc2)cc1C(=O)N1CCC(C)CC1	1	-0.17
CCCc1nc(NCCCOC2CCCC2)no1	-18	1.57
N#Cc1cccc(NC2CN(C(=O)[C@H]3CCS(=O)(=O)C3)C2)c1	-1	0.16
Cc1nc(C(=O)NCCn2c(=O)[nH]c3ccsc3c2=O)cs1	-9	1.75
CC[C@@]1(C)COCCN1C(=O)Cn1ccc(=O)[nH]c1=O	34	-3.81
C#CC[C@H]1CCCN(c2nnnn2C[C@H]2C[C@@H](OC)C2)C1	-10	1.26
Cn1cnn(CCC(=O)N(CC2CC2)c2ccccc2)c1=O	-11	1.47
Cc1ccc(NC(=O)CC2=Nc3ccccc3S(=O)(=O)N2)cc1C	-5	0.92
CCOC(=O)C1=C(c2ccccc2)S/C(=C2/C(=S)C(C)(C)Nc3cc(C)c(C)cc32)S1	-17	2.22
CCCCc1nc(-c2c(-c3ccccc3)ncn2CC[C@H]2CCCN2C)c[nH]1	1	-0.18
COc1ccc(CCNCc2cc(Br)ccc2OCc2ccccn2)cc1OC	-5	0.66
CCc1ccc(-c2nn(C)c(=O)c3c2CCCC3)cc1S(=O)(=O)N1CCN(c2ccccc2)CC1	-12	1.9
CS(=O)(=O)N1CCC[C@@H]1CNc1nc2c(cc1C#N)CCC2	9	-1.64
CC(C)(Cc1cnn[nH]1)C(=O)N1CCC2C(CCCN2C2CC2)C1 (centres undefined)	-5	1.03
Cn1c(-c2cccc(C(=O)Nc3ccc4c(c3)OCCO4)c2)nc2cccnc21	-17	2.24
COc1ccc2c(c1)CCCN(C(=O)c1c[nH]c(=O)cc1C)C2	15	-2
CC1CC1C(=O)Nc1n[nH]c2nc(C(F)(F)F)ccc12 (centres undefined)	-4	0.9
COc1cccc([C@@H]2NC(=O)NC3=Nc4ccccc4NC(c4ccccc4)=C32)c1OC	14	-1.94
